Tested on: patients with treatment-resistant major depressive disorder (TRD)
Assay: Phase 1/2 clinical trial of inhaled 5-MeO-DMT in patients with TRD (12 mg, 18 mg, IDR 6/12/18 mg)
Conditions: for BPRS Anxiety percentage improvement: baseline 37

COc1ccc2[nH]cc(CCN(C)C)c2c1 [5-MeO-DMT]
MADRS Suicidal Thoughts summed score (12 mg n=4, 2 h, baseline 8): 3
MADRS Inner Tension percentage improvement (12 mg n=4, 2 h, baseline 13): 85%
MADRS Inner Tension summed score (12 mg n=4, 2 h, baseline 13): 2
MADRS Concentration Difficulties summed score (12 mg n=4, 2 h, baseline 16): 7
MADRS Inability to Feel summed score (12 mg n=4, 2 h, baseline 16): 9
MADRS Lassitude summed score (12 mg n=4, 2 h, baseline 16): 10
MADRS Pessimistic Thoughts summed score (12 mg n=4, 2 h, baseline 16): 8
BPRS Blunted Affect summed score (12 mg n=4, 3 h, baseline 11): 8
BPRS Tension summed score (12 mg n=4, 3 h, baseline 14): 9
BPRS Guilt Feelings summed score (12 mg n=4, 3 h, baseline 18): 9
MADRS Suicidal Thoughts summed score (12 mg n=4, Day 1, baseline 8): 5
BPRS Blunted Affect summed score (12 mg n=4, Day 1, baseline 11): 6
MADRS Reduced Sleep summed score (12 mg n=4, Day 1, baseline 12): 10
BPRS Emotional Withdrawal summed score (12 mg n=4, Day 1, baseline 13): 8
MADRS Inner Tension percentage improvement (12 mg n=4, Day 1, baseline 13): 77%
MADRS Inner Tension summed score (12 mg n=4, Day 1, baseline 13): 3
BPRS Tension percentage improvement (12 mg n=4, Day 1, baseline 14): 57%
BPRS Tension summed score (12 mg n=4, Day 1, baseline 14): 6
MADRS Concentration Difficulties percentage improvement (12 mg n=4, Day 1, baseline 16): 88%
MADRS Concentration Difficulties summed score (12 mg n=4, Day 1, baseline 16): 2
MADRS Inability to Feel summed score (12 mg n=4, Day 1, baseline 16): 1
MADRS Lassitude summed score (12 mg n=4, Day 1, baseline 16): 0
MADRS Pessimistic Thoughts summed score (12 mg n=4, Day 1, baseline 16): 7
BPRS Guilt Feelings percentage improvement (12 mg n=4, Day 1, baseline 18): 72%
BPRS Guilt Feelings summed score (12 mg n=4, Day 1, baseline 18): 5
BPRS Anxiety summed score (12 mg n=4, Day 1, baseline 25): 6
MADRS Suicidal Thoughts summed score (12 mg n=4, Day 7, baseline 8): 7
BPRS Blunted Affect summed score (12 mg n=4, Day 7, baseline 11): 5
MADRS Reduced Sleep summed score (12 mg n=4, Day 7, baseline 12): 6
BPRS Emotional Withdrawal summed score (12 mg n=4, Day 7, baseline 13): 6
MADRS Inner Tension percentage improvement (12 mg n=4, Day 7, baseline 13): 62%
MADRS Inner Tension summed score (12 mg n=4, Day 7, baseline 13): 5
BPRS Tension percentage improvement (12 mg n=4, Day 7, baseline 14): 57%
BPRS Tension summed score (12 mg n=4, Day 7, baseline 14): 6
MADRS Concentration Difficulties percentage improvement (12 mg n=4, Day 7, baseline 16): 81%
MADRS Concentration Difficulties summed score (12 mg n=4, Day 7, baseline 16): 3
MADRS Inability to Feel summed score (12 mg n=4, Day 7, baseline 16): 1
MADRS Lassitude percentage improvement (12 mg n=4, Day 7, baseline 16): 81%
MADRS Lassitude summed score (12 mg n=4, Day 7, baseline 16): 3
MADRS Pessimistic Thoughts summed score (12 mg n=4, Day 7, baseline 16): 8
BPRS Guilt Feelings percentage improvement (12 mg n=4, Day 7, baseline 18): 72%
BPRS Guilt Feelings summed score (12 mg n=4, Day 7, baseline 18): 5
BPRS Anxiety summed score (12 mg n=4, Day 7, baseline 25): 6
MADRS Suicidal Thoughts summed score (IDR n=8, 2 h, baseline 11): 3
MADRS Inner Tension percentage improvement (IDR n=8, 2 h, baseline 26): 58%
MADRS Lassitude summed score (IDR n=8, 2 h, baseline 27): 10
MADRS Pessimistic Thoughts summed score (IDR n=8, 2 h, baseline 28): 7
BPRS Emotional Withdrawal summed score (IDR n=8, 3 h, baseline 13): 8
BPRS Anxiety percentage improvement (IDR n=8, 3 h): 49%
MADRS Suicidal Thoughts summed score (IDR n=8, Day 1, baseline 11): 1
BPRS Emotional Withdrawal summed score (IDR n=8, Day 1, baseline 13): 8
BPRS Blunted Affect summed score (IDR n=8, Day 1, baseline 15): 8
MADRS Inner Tension percentage improvement (IDR n=8, Day 1, baseline 26): 77%
MADRS Inner Tension summed score (IDR n=8, Day 1, baseline 26): 6
MADRS Lassitude percentage improvement (IDR n=8, Day 1, baseline 27): 81%
MADRS Lassitude summed score (IDR n=8, Day 1, baseline 27): 5
MADRS Pessimistic Thoughts percentage improvement (IDR n=8, Day 1, baseline 28): 86%
MADRS Pessimistic Thoughts summed score (IDR n=8, Day 1, baseline 28): 4
MADRS Concentration Difficulties percentage improvement (IDR n=8, Day 1, baseline 30): 97%
MADRS Concentration Difficulties summed score (IDR n=8, Day 1, baseline 30): 1
BPRS Guilt Feelings percentage improvement (IDR n=8, Day 1, baseline 34): 68%
MADRS Inability to Feel summed score (IDR n=8, Day 1, baseline 36): 2
BPRS Anxiety percentage improvement (IDR n=8, Day 1): 57%
MADRS Suicidal Thoughts summed score (IDR n=8, Day 7, baseline 11): 3
BPRS Emotional Withdrawal summed score (IDR n=8, Day 7, baseline 13): 8
BPRS Blunted Affect summed score (IDR n=8, Day 7, baseline 15): 8
BPRS Tension summed score (IDR n=8, Day 7, baseline 16): 10
MADRS Reduced Sleep summed score (IDR n=8, Day 7, baseline 25): 9
MADRS Lassitude percentage improvement (IDR n=8, Day 7, baseline 27): 89%
MADRS Lassitude summed score (IDR n=8, Day 7, baseline 27): 3
MADRS Pessimistic Thoughts percentage improvement (IDR n=8, Day 7, baseline 28): 89%
MADRS Pessimistic Thoughts summed score (IDR n=8, Day 7, baseline 28): 3
MADRS Concentration Difficulties summed score (IDR n=8, Day 7, baseline 30): 9
BPRS Guilt Feelings percentage improvement (IDR n=8, Day 7, baseline 34): 71%
BPRS Guilt Feelings summed score (IDR n=8, Day 7, baseline 34): 10
MADRS Inability to Feel summed score (IDR n=8, Day 7, baseline 36): 6
Patients experiencing at least one ADR (Part A 12 mg): 3 of 4
Proportion of patients with MADRS remission (Part A 12 mg n=4, day seven): 50%
Patients experiencing at least one ADR (Part A 18 mg): 3 of 4
SAEs (Part A (12 mg and 18 mg)): No SAEs were reported
Severity and outcome of ADRs (Part A (12 mg and 18 mg)): mild and resolved spontaneously
Outcome of ADRs (Part B IDR): resolved spontaneously
SAEs (Part B IDR): No SAEs were reported
